In patent publication US20240392031A1 (BICARA THERAPEUTICS, published 2024):

B1: BCA369, anti-hCAIX hIL-12 fusion protein (hIL-12p40 W37A) (other)
heavy 1: EVRLVESGGGLVKPGGSLRLSCAASGFTFSNYYMSWIRQAPEKRLELVSAINSDGGITYYLDTVKGRFTISRDNAKNSLYLQMNSLRAEDTALFYCARHRSGYFSMDYWGQGTSVTVSS[human IgG1 constant region with changes left out here]GGGGSGGGGSGGGGSIWELKKDVYVVELDAYPDAPGEMVVLTCDTPEEDGITWTLDQSSEVLGSGKTLTIQVKEFGDAGQYTCHKGGEVLSHSLLLLHKKEDGIWSTDILKDQKEPKNKTFLRCEAKNYSGRFTCWWLTTISTDLTFSVKSSRGSSDPQGVTCGAATLSAERVRGDNKEYEYSVECQEDSACPAAEESLPIEVMVDAVHKLKYENYTSSFFIRDIIKPDPPKNLQLKPLKNSRQVEVSWEYPDTWSTPHSYFSLTFCVQVQGKSKREKKDRVFTDKTSATVICRKNASISVRAQDRYYSSSWSEWASVPCS
heavy 2: EVRLVESGGGLVKPGGSLRLSCAASGFTFSNYYMSWIRQAPEKRLELVSAINSDGGITYYLDTVKGRFTISRDNAKNSLYLQMNSLRAEDTALFYCARHRSGYFSMDYWGQGTSVTVSSASTKGPSVFPLAPSSKSTSGGTAALGCLVKDYFPEPVTVSWNSGALTSGVHTFPAVLQSSGLYSLSSVVTVPSSSLGTQTYICNVNHKPSNTKVDKKV[human IgG1 Fc with changes left out here]GGGGSGGGGSGGGGSRNLPVATPDPGMFPCLHHSQNLLRAVSNMLQKARQTLEFYPCTSEEIDHEDITKDKTSTVEACLPLELTKNESCLNSRETSFITNGSCLASRKTSFMMALCLSSIYEDLKMYQVEFKTMNAKLLMDPKRQIFLDQNMLAVIDELMQALNFNSETVPQKSSLEEPDFYKTKIKLCILLHAFRIRAVTIDRVMSYLNAS
light: EIVMTQSPATLSVSPGERATLSCKASQNVVSAVAWYQQKPGQSPRLLIYSASNRYTGIPARFSGSGSGTEFTLTISSLQSEDFAAYYCQQYRNYPWTFGGGTKVEIKRTVAAPSVFIFPPSDEQLKSGTASVVCLLNNFYPREAKVQWKVDNALQSGNSQESVTEQDSKDSTYSLSSTLTLSKADYEKHKVYACEVTHQGLSSPVTKSFNRGEC
B2: BCA370, anti-hCAIX hIL-12 fusion protein (hIL-12p40 F82A) (other)
heavy 1: EVRLVESGGGLVKPGGSLRLSCAASGFTFSNYYMSWIRQAPEKRLELVSAINSDGGITYYLDTVKGRFTISRDNAKNSLYLQMNSLRAEDTALFYCARHRSGYFSMDYWGQGTSVTVSS[human IgG1 constant region with changes left out here]GGGGSGGGGSGGGGSIWELKKDVYVVELDWYPDAPGEMVVLTCDTPEEDGITWTLDQSSEVLGSGKTLTIQVKEAGDAGQYTCHKGGEVLSHSLLLLHKKEDGIWSTDILKDQKEPKNKTFLRCEAKNYSGRFTCWWLTTISTDLTFSVKSSRGSSDPQGVTCGAATLSAERVRGDNKEYEYSVECQEDSACPAAEESLPIEVMVDAVHKLKYENYTSSFFIRDIIKPDPPKNLQLKPLKNSRQVEVSWEYPDTWSTPHSYFSLTFCVQVQGKSKREKKDRVFTDKTSATVICRKNASISVRAQDRYYSSSWSEWASVPCS
heavy 2: EVRLVESGGGLVKPGGSLRLSCAASGFTFSNYYMSWIRQAPEKRLELVSAINSDGGITYYLDTVKGRFTISRDNAKNSLYLQMNSLRAEDTALFYCARHRSGYFSMDYWGQGTSVTVSSASTKGPSVFPLAPSSKSTSGGTAALGCLVKDYFPEPVTVSWNSGALTSGVHTFPAVLQSSGLYSLSSVVTVPSSSLGTQTYICNVNHKPSNTKVDKKV[human IgG1 Fc with changes left out here]GGGGSGGGGSGGGGSRNLPVATPDPGMFPCLHHSQNLLRAVSNMLQKARQTLEFYPCTSEEIDHEDITKDKTSTVEACLPLELTKNESCLNSRETSFITNGSCLASRKTSFMMALCLSSIYEDLKMYQVEFKTMNAKLLMDPKRQIFLDQNMLAVIDELMQALNFNSETVPQKSSLEEPDFYKTKIKLCILLHAFRIRAVTIDRVMSYLNAS
light: B1 light
B3: BCA374, anti-hCAIX hIL-12 fusion protein (hIL-12p40 W37A, K217A) (other)
heavy 1: EVRLVESGGGLVKPGGSLRLSCAASGFTFSNYYMSWIRQAPEKRLELVSAINSDGGITYYLDTVKGRFTISRDNAKNSLYLQMNSLRAEDTALFYCARHRSGYFSMDYWGQGTSVTVSS[human IgG1 constant region with changes left out here]GGGGSGGGGSGGGGSIWELKKDVYVVELDAYPDAPGEMVVLTCDTPEEDGITWTLDQSSEVLGSGKTLTIQVKEFGDAGQYTCHKGGEVLSHSLLLLHKKEDGIWSTDILKDQKEPKNKTFLRCEAKNYSGRFTCWWLTTISTDLTFSVKSSRGSSDPQGVTCGAATLSAERVRGDNKEYEYSVECQEDSACPAAEESLPIEVMVDAVHALKYENYTSSFFIRDIIKPDPPKNLQLKPLKNSRQVEVSWEYPDTWSTPHSYFSLTFCVQVQGKSKREKKDRVFTDKTSATVICRKNASISVRAQDRYYSSSWSEWASVPCS
heavy 2: EVRLVESGGGLVKPGGSLRLSCAASGFTFSNYYMSWIRQAPEKRLELVSAINSDGGITYYLDTVKGRFTISRDNAKNSLYLQMNSLRAEDTALFYCARHRSGYFSMDYWGQGTSVTVSSASTKGPSVFPLAPSSKSTSGGTAALGCLVKDYFPEPVTVSWNSGALTSGVHTFPAVLQSSGLYSLSSVVTVPSSSLGTQTYICNVNHKPSNTKVDKKV[human IgG1 Fc with changes left out here]GGGGSGGGGSGGGGSRNLPVATPDPGMFPCLHHSQNLLRAVSNMLQKARQTLEFYPCTSEEIDHEDITKDKTSTVEACLPLELTKNESCLNSRETSFITNGSCLASRKTSFMMALCLSSIYEDLKMYQVEFKTMNAKLLMDPKRQIFLDQNMLAVIDELMQALNFNSETVPQKSSLEEPDFYKTKIKLCILLHAFRIRAVTIDRVMSYLNAS
light: B1 light
B4: BCA373, anti-hCAIX hIL-12 fusion protein (hIL-12p40 W37A, F82A) (other)
heavy 1: EVRLVESGGGLVKPGGSLRLSCAASGFTFSNYYMSWIRQAPEKRLELVSAINSDGGITYYLDTVKGRFTISRDNAKNSLYLQMNSLRAEDTALFYCARHRSGYFSMDYWGQGTSVTVSS[human IgG1 constant region with changes left out here]GGGGSGGGGSGGGGSIWELKKDVYVVELDAYPDAPGEMVVLTCDTPEEDGITWTLDQSSEVLGSGKTLTIQVKEAGDAGQYTCHKGGEVLSHSLLLLHKKEDGIWSTDILKDQKEPKNKTFLRCEAKNYSGRFTCWWLTTISTDLTFSVKSSRGSSDPQGVTCGAATLSAERVRGDNKEYEYSVECQEDSACPAAEESLPIEVMVDAVHKLKYENYTSSFFIRDIIKPDPPKNLQLKPLKNSRQVEVSWEYPDTWSTPHSYFSLTFCVQVQGKSKREKKDRVFTDKTSATVICRKNASISVRAQDRYYSSSWSEWASVPCS
heavy 2: EVRLVESGGGLVKPGGSLRLSCAASGFTFSNYYMSWIRQAPEKRLELVSAINSDGGITYYLDTVKGRFTISRDNAKNSLYLQMNSLRAEDTALFYCARHRSGYFSMDYWGQGTSVTVSSASTKGPSVFPLAPSSKSTSGGTAALGCLVKDYFPEPVTVSWNSGALTSGVHTFPAVLQSSGLYSLSSVVTVPSSSLGTQTYICNVNHKPSNTKVDKKV[human IgG1 Fc with changes left out here]GGGGSGGGGSGGGGSRNLPVATPDPGMFPCLHHSQNLLRAVSNMLQKARQTLEFYPCTSEEIDHEDITKDKTSTVEACLPLELTKNESCLNSRETSFITNGSCLASRKTSFMMALCLSSIYEDLKMYQVEFKTMNAKLLMDPKRQIFLDQNMLAVIDELMQALNFNSETVPQKSSLEEPDFYKTKIKLCILLHAFRIRAVTIDRVMSYLNAS
light: B1 light

Each binder was assayed against T1, human IL-12 receptor (hIL-12R), heterodimer of hIL-12Rβ1 and hIL-12Rβ2 (human, UniProt P42701 24-662; Q99665 24-862) (assay: cell-based or functional assay).

Binder	Fold Attenuation (Over Fc-IL-12 Control); HEK-Blue IL-12 reporter assay
B1	8 fold
B2	18 fold
B3	43 fold
B4	207 fold

Biological target: T1, human IL-12 receptor (hIL-12R), …
Test: cell-based or functional assay
Remark: another data set of the same source

Binder	HEK-IL12 reporter assay Attenuation (summary table)
B2	18 fold
B3	43 fold
B4	207 fold
